Values joined by “and” are separate entries in the source; they are usually repeats but may differ in a detail not shown here. Equal values may be shown once. Hit rate of the full screen: of about 390,000 compounds, about 17,000 (4.4%) were called active. The inconclusive results got no clear call from the source; some entries with a clear call stand among them for comparison. Calls follow the shape of the dose curve; as a rule, active = well fitted inhibition curve with a large enough effect; inconclusive = small, poorly fitted or top-dose-only effect; inactive = no such curve, though single readings can be large or run the other way. Where the call is inconclusive, the potency comes from a doubtful curve fit.
These compounds were tested against Lysine-specific demethylase 4A (Homo sapiens) (UniProt O75164) (assay: qHTS Assay for Inhibitors of JMJD2A-Tudor Domain). Conditions: AlphaScreen JMJD2A-Tudor / H3K4me3 peptide binding; activity change, negative = inhibition: at 114 µM (top of the series).
UniProt O75164, sequence (O75164 whole entry, looked up, the tested form may be a part): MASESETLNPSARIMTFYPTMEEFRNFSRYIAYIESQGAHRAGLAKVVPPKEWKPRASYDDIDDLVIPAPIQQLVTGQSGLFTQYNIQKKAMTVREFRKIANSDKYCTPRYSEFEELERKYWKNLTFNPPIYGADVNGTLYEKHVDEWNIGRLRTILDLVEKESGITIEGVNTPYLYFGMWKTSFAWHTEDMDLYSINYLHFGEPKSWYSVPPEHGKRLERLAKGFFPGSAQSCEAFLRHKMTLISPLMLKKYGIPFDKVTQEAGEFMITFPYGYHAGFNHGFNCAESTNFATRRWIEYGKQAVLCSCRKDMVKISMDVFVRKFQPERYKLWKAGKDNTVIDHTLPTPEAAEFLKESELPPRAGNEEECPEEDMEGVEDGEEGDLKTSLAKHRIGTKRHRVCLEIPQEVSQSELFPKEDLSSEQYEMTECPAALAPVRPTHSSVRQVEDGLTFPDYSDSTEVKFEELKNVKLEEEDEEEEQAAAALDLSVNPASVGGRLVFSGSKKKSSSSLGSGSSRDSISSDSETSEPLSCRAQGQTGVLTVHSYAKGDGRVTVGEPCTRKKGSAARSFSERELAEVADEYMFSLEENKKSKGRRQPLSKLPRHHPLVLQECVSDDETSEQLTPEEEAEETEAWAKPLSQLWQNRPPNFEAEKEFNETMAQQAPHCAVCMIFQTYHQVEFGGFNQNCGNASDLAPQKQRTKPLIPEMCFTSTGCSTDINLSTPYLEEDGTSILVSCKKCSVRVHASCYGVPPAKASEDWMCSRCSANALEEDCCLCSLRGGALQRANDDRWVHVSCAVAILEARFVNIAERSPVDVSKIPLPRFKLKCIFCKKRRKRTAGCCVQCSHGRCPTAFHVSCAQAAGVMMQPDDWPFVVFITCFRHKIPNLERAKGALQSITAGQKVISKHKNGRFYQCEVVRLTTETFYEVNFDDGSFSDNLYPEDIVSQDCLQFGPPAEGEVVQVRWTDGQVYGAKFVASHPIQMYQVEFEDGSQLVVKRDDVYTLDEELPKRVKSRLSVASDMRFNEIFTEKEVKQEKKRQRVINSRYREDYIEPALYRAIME
`Fc1ccc(C[n+]2csc3ccccc32)cc1` was tested, and the Potency was inconclusive: 63.1 µM [inhibitor, partial curve, poor fit].
`Cc1ccccc1Nc1nnc(SCC(=O)NCc2ccco2)s1` was tested, and the Potency was inconclusive: 70.8 µM [inhibitor, partial curve].
`COC(=O)CCSc1cc([N+](=O)[O-])cc2c1c(C1OCCO1)nn2-c1ccccc1` was tested, and the Potency was inconclusive: 56.2 µM [inhibitor, partial curve].
In the case of `COc1cccc(NC(=O)CN(C)C(=O)c2ccc(N3CCCCC3)c([N+](=O)[O-])c2)c1`, the Potency is reported as inconclusive: 56.2 µM [inhibitor, partial curve].
For `COc1cc(-c2noc(C)c2C#CC2(O)CCCCC2)cc(OC)c1OC`, the “activity change, negative = inhibition” value was inactive: -2.76%.
With `COc1ccc(NC(=O)CN2C(=O)CSC(C)C2=O)cc1` (stereo unspecified) the Potency was inconclusive: 39.8 µM [inhibitor, partial curve].
In the case of `O=C(Nc1cccc(O)c1)c1cc(-c2ccccc2F)no1`, the Potency is reported as inconclusive: 39.8 µM [inhibitor, partial curve].
In the case of `CCN=C(Nc1ccc2c(c1)OCO2)SC1CC(=O)N(c2ccccc2F)C1=O` (stereo unspecified), the “activity change, negative = inhibition” value is reported as inactive: -0.685%.
In the case of `O=C(O)c1cccc(-n2cccc2/C=N/O)c1`, the Potency is reported as active: 31.6 µM.
With `COc1cc(NC(=S)N2CCOCC2)c(OC)cc1Cl` the “activity change, negative = inhibition” value was inactive: -12.1%.
In the case of `CCOc1ccccc1C(=O)Nc1cc(-c2nc3cccnc3s2)ccc1C`, the Potency is reported as inconclusive: 56.2 µM [inhibitor, partial curve].
In the case of `CNc1ccccc1C(C)(C)c1cc(-c2cccc([N+](=O)[O-])c2)no1`, the Potency is reported as inconclusive: 35.5 µM [inhibitor, partial curve].
In the case of `Cc1ccsc1/C=N/n1c(-c2cc(-c3ccccc3)n[nH]2)n[nH]c1=S`, the Potency is reported as inconclusive: 25.1 µM [inhibitor, full curve].
In the case of `Cc1cc(C(=O)CN2C(=O)NC3(CCCc4sccc43)C2=O)c(C)n1-c1ccccc1` (stereo unspecified), the Potency is reported as inconclusive: 22.4 µM [inhibitor, full curve].
In the case of `Cn1c(=O)c2c(n(Cc3ccccc3)c1=O)NC(=O)C2CC(=O)N1CCc2ccccc2C1` (stereo unspecified), the Potency is reported as inconclusive: 89.1 µM [inhibitor, single point].
For `Cc1cc(C(=O)COC(=O)Cc2ccc(Cl)cc2)c(C)n1C`, the Potency was inconclusive: 2.82 µM [inhibitor, full curve, poor fit].
In the case of `O=S(=O)(O)c1ccc(NN=Cc2ccccc2O)cc1`, the Potency is reported as active: 100 µM.
For `Cc1ccc(C)c(N2CCN(C(=O)C3CCC(CNS(=O)(=O)c4ccc(Br)s4)CC3)CC2)c1` (stereo unspecified), the “activity change, negative = inhibition” value was inactive: -13.7%.
In the case of `O=C1/C(=C\c2ccccn2)SC(=S)N1c1ccc(S(=O)(=O)Nc2nccs2)cc1`, the Potency is reported as active: 17.8 µM.
In the case of `COC(=O)c1nn(-c2ccc(OC)cc2)c(=O)c2c(N)sc(C)c12`, the Potency is reported as inconclusive: 44.7 µM [inhibitor, single point].
For `CC1CCCN(C(=O)C2CCN(Cc3ccc4c(c3)OCO4)CC2)C1` (stereo unspecified), the Potency was active: 2.24 µM.
With `CCOc1ccc(S(=O)(=O)n2nnc3ccccc32)cc1C` the Potency was inconclusive: 50.1 µM [inhibitor, partial curve].
For `COc1cccc(NC(=S)/C(=C(\[O-])c2ccc(C)c([N+](=O)[O-])c2)[n+]2ccccc2)c1`, the Potency was inconclusive: 15.8 µM [inhibitor, partial curve].
`O=C(NNS(=O)(=O)c1cc(Cl)cc(Cl)c1)c1sccc1-n1cccc1` was tested, and the Potency was inconclusive: 3.55 µM [inhibitor, full curve, poor fit].
With `Fc1ccccc1-c1csc(=Nc2cccnc2)n1CCCn1ccnc1` the Potency was inconclusive: 35.5 µM [inhibitor, partial curve].
In the case of `CC1(C)CC(=O)C2=C(C1)c1c(ccc3ccccc13)NC2c1cc([N+](=O)[O-])cc([N+](=O)[O-])c1O` (stereo unspecified), the Potency is reported as active: 56.2 µM.
In the case of `CC[C@H](C)/C=C/C1=CC2=C(Cl)C(=O)[C@@]3(C)OC(=O)C(C(=O)[C@H](C)[C@@H](C)O)=C3C2=CO1`, the Potency is reported as active: 56.2 µM.
With `C[C@@H](C(=O)NCc1ccccc1)[C@@H]1C[C@@]1(C)[C@@H](NC(=O)OCc1ccccc1)c1ccccc1` the “activity change, negative = inhibition” value was inactive: -18.1%.
For `Cc1cc(C)c(S(=O)(=O)N2CCC(N3CCN(Cc4ccc(F)cc4)C(=O)C3=O)CC2)c(C)c1`, the “activity change, negative = inhibition” value was inactive: -4.97%.
For `COc1ccc(CC(=O)NNC(=O)COc2ccc(F)cc2)cc1S(=O)(=O)N1CCOCC1`, the “activity change, negative = inhibition” value was inactive: -15.3%.
`CCOc1cccc(C(=O)Nc2ccc(-c3nc4cc(C)cc(C)c4o3)cc2)c1` was tested, and the “activity change, negative = inhibition” value was inactive: -13.1%.
`Cc1ccc(C)c(S(=O)(=O)N2CC(=O)Nc3ccccc32)c1` was tested, and the Potency was active: 79.4 µM.
With `CC(=O)NC1=NC(=O)/C(=C/c2cn(C(C)=O)nc2-c2ccccc2)S1` the Potency was active: 22.4 µM.
In the case of `CCOC(=O)CC(C)(C)/C(C)=N/Nc1ccc([N+](=O)[O-])cc1[N+](=O)[O-]`, the activity change, negative = inhibition is reported as inconclusive: -75% [inhibitor].
`Fc1ccccc1-c1n[nH]c(=S)n1/N=C/c1c[nH]c2ccccc12` was tested, and the Potency was active: 35.5 µM.
For `COc1ccc(C2/C=C\CN(C(=O)C3CC3)C(C)C(=O)N2Cc2ccc(F)cc2)cc1` (stereo unspecified), the “activity change, negative = inhibition” value was inactive: -22.1%.
With `CCN1CCC(=NNC(=O)c2ccco2)CC1` the activity change, negative = inhibition was inactive: 4.58% [at 11.4 µM].
For `CN(C)c1cc(Cl)c2nonc2c1N`, the Potency was inconclusive: 17.8 µM [inhibitor, partial curve].
For `O=C(CN1CCCCCC1)Nc1ccccc1`, the Potency was active: 8.91 µM.
In the case of `N#Cc1c(Cl)nsc1NN`, the Potency is reported as active: 50.1 µM.
With `Cc1ccc(-n2nc3c(=O)n(CC(=O)NCCc4ccco4)nc(C)c3c2C)cc1` the Potency was inconclusive: 89.1 µM [inhibitor, single point].
With `N#Cc1ccc(OC(=O)c2cnccn2)cc1` the Potency was inconclusive: 50.1 µM [inhibitor, partial curve].
For `CC(=O)C1=C(O)C(=O)N(CO)C1c1ccccc1F` (stereo unspecified), the Potency was inconclusive: 89.1 µM [inhibitor, single point].
For `Cc1cc(C)cc(N(C(=O)CNC(=O)c2ccco2)C(C(=O)NC2CCCCC2)c2ccncc2)c1` (stereo unspecified), the “activity change, negative = inhibition” value was inactive: -17.9%.
For `Cc1ccc2c(c1)c1c3n2CCN(C=O)C3CCC1` (stereo unspecified), the Potency was inconclusive: 50.1 µM [inhibitor, partial curve].
For `Cc1ccn2cc(-c3ccc(O)c(O)c3)nc2c1`, the Potency was active: 39.8 µM.
In the case of `Cc1ccc(C2=Nc3ccccc3N(C(=O)c3ccccc3)C(C)C2)cc1` (stereo unspecified), the Potency is reported as inconclusive: 22.4 µM [inhibitor, single point].
`CN(C)c1ccc(C(CNS(=O)(=O)c2ccc(F)cc2)N2CCCC2)cc1` (stereo unspecified) was tested, and the Potency was inconclusive: 63.1 µM [inhibitor, partial curve].
In the case of `CCCCNC(=O)c1ccccc1C(=O)NCCCC`, the Potency is reported as active: 14.1 µM.
For `CCCCN(C)CCCNC(=O)CN1N=C(c2ccc(Cl)cc2)CCC1=O`, the “activity change, negative = inhibition” value was inactive: -5.76%.
With `CCc1cccc(OCC(=O)Nc2ccc(S(=O)(=O)N3CCCC3)cc2)c1` the “activity change, negative = inhibition” value was inactive: -5.3%.
With `CCCOc1ccc(CC(CC(=O)O)(C(=O)O)C(=O)O)cc1` the Potency was inconclusive: 31.6 µM [inhibitor, single point].
With `O=S(=O)(O)c1cccc2cccnc12` the Potency was inconclusive: 89.1 µM [inhibitor, single point].
`COc1ccc(C(CC(=O)N2CCCC(C)C2)c2c(OC)cc(OC)c3c(-c4ccccc4)cc(=O)oc23)cc1` (stereo unspecified) was tested, and the Potency was active: 44.7 µM.
In the case of `CCOC(=O)c1c(C2COc3ccccc3O2)csc1N` (stereo unspecified), the Potency is reported as inconclusive: 89.1 µM [inhibitor, partial curve, poor fit].
In the case of `O=C(O)c1cc(O)c2c(c1)C(=O)c1cccc(O)c1C2=O`, the Potency is reported as active: 56.2 µM.
For `O=C1C=CC(=O)N1c1ccc(OC(F)F)cc1`, the Potency was active: 15.8 µM.
`O=C(NN=C1c2ccccc2-c2ccccc21)c1cccc(Br)c1` was tested, and the Potency was inconclusive: 28.2 µM [inhibitor, single point].
With `Cc1noc(Cn2c(=O)c3ccccc3n(CC(=O)Nc3ccc(Cl)cc3)c2=O)n1` the “activity change, negative = inhibition” value was inactive: 4.48%.
With `O=C(O)CC1=C(Nc2ccccc2)C(=O)N(c2ccccc2)C1c1ccc(Br)cc1` (stereo unspecified) the Potency was inconclusive: 2.82 µM [inhibitor, full curve, poor fit].
With `CCn1c(C(C)C)n[nH]c1=S` the Potency was inconclusive: 39.8 µM [inhibitor, single point].
For `COCc1ccc(C(=O)N2CCCC(C(=O)c3ccc(Cl)cc3C)C2)o1` (stereo unspecified), the Potency was inconclusive: 15.8 µM [inhibitor, partial curve, poor fit].
For `COc1ccc(S(=O)(=O)N2CCN(Cc3cc(OC)c(O)c(OC)c3)CC2)cc1`, the Potency was active: 22.4 µM.
With `CCn1c(-c2ccc3ncccc3c2)n[nH]c1=S` the Potency was active: 5.01 µM.
In the case of `COC(=O)[C@@]1(C)[C@H]2C(=O)N(Cc3ccccc3)C(=O)[C@H]2[C@H]2CN=C(SCc3ccc(C)cc3)N21`, the Potency is reported as inconclusive: 89.1 µM [inhibitor, partial curve].
With `CCCC(=O)Nc1cc(-c2nc3cccnc3s2)ccc1C` the “activity change, negative = inhibition” value was inactive: -33.9%.
In the case of `CCc1cccc(NC(c2nnc(-c3ccccc3)o2)c2ccc(F)cc2Cl)c1` (stereo unspecified), the “activity change, negative = inhibition” value is reported as inactive: 3%.
`Cc1ccc(NC(=O)NCC2CCN(Cc3cccc(Cl)c3)CC2)cc1Cl` was tested, and the Potency was inconclusive: 50.1 µM [inhibitor, partial curve] and inconclusive: 25.1 µM [inhibitor, full curve].
For `COC(=O)C1=C(C)N(Cc2ccccc2)C(=NCCc2c[nH]c3ccccc23)N[C@H]1c1ccccc1`, the Potency was inconclusive: 39.8 µM [inhibitor, partial curve].
With `N#CC(C#N)=C1C=CC=CN1/C(=C\c1ccco1)C(=O)c1ccc(Br)cc1` the Potency was inconclusive: 35.5 µM [inhibitor, single point].
In the case of `COc1ccccc1C1c2[nH]c3ccccc3c2C[C@H]2C(=O)N(C3CCN(Cc4ccccc4)CC3)CC(=O)N12` (stereo partly specified), the Potency is reported as inconclusive: 35.5 µM [inhibitor, partial curve].
% is scaled to controls: 0 for no effect and ±100 for the full control effect; potency is read from the fitted curve at half-maximal effect; tags tell the direction and shape of the fitted curve.
Also: nearly all actives have a fitted effect of over 50% in size.
